# Reference: article PMC4336329 (PLoS ONE, 2015)
# About 2,200 (0.71%) of roughly 310,000 compounds showed an effect of 50% or more. Effects have a minus sign here. The list shows a part of the results.
# Molecular target: human ether-à-go-go-related gene (hERG) potassium channel (human, UniProt Q12809)
# Assay: primary screen, population patch clamp on CHO cells stably expressing hERG
# human ether-à-go-go-related gene (hERG) potassium channel, sequence (Q12809 whole entry, looked up): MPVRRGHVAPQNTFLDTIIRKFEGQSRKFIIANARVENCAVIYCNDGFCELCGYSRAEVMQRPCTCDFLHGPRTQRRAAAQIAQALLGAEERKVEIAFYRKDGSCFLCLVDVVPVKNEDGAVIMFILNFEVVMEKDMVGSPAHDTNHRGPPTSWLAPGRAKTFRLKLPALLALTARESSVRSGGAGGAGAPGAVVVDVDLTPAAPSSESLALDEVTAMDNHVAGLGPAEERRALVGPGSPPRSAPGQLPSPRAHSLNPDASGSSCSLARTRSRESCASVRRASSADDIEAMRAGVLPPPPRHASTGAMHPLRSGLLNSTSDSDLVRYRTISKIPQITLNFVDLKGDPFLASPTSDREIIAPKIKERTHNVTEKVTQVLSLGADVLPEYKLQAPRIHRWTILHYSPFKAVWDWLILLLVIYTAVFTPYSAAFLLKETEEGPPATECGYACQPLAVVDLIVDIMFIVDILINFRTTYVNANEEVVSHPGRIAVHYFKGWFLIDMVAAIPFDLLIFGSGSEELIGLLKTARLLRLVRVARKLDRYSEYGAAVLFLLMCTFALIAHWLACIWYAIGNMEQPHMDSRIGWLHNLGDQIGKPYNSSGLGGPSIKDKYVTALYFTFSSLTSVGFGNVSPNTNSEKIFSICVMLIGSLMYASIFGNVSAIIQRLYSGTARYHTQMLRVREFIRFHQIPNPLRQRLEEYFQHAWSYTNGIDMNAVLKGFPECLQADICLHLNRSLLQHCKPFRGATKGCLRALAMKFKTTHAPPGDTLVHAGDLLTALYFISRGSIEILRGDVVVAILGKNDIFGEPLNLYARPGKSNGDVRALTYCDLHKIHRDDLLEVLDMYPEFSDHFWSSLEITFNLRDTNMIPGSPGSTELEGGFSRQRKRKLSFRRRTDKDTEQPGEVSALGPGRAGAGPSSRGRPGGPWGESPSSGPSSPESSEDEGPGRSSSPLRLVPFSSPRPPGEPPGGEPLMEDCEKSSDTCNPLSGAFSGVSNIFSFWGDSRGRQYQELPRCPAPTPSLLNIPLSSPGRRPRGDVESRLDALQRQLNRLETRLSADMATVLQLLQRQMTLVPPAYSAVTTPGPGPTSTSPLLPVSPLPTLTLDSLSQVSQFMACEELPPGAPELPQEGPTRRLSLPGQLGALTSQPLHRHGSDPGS
row,Structure (SMILES),"hERG current change (%, negative = inhibition) at 1uM [%]"
1,Cc1cc(N2CC(=O)N(CCc3ccccc3)C(=O)C2)n2ncnc2n1,-0.495
2,O=C(Nc1ccon1)c1cccc(S(=O)(=O)N2CCCC2)c1,8.64
3,CN(Cc1cnn(C)c1)Cc1nc(C(c2ccccc2)c2ccccc2)no1,-0.349
4,O=C(NCCC(=O)N1CCN(c2ccccc2F)CC1)c1ccco1,10.2
5,COCCNC(=O)[C@@H]1CCCN1S(=O)(=O)c1cccc2cccnc12,6.09
6,CC(C)(C)Nc1c(-c2ccc(O)cc2)nc2ccc(Cl)cn12,13.6
7,COc1ccc(N(C(=O)c2ccco2)C(C(=O)NC2CCCC2)c2ccc(OC)c(OC)c2)cc1 (centres unmarked),7.23
8,COC(=O)C1(CC2CC(c3ccncc3)=NO2)CCN(C(=O)OC(C)(C)C)CC1 (centres unmarked),10.2
9,COc1ccc(OC)c(-n2c(=S)[nH]c3cc(C(=O)N4CCN(c5ccccc5)CC4)ccc3c2=O)c1,8.17
10,COc1ccc(CC(=O)OCC(=O)NC(=O)NC2CCCC2)cc1,9.71
11,O=C(NCCS(=O)(=O)N1CCN(c2ccccc2F)CC1)c1ccc(Br)o1,-11.4
12,CC(=O)Oc1ccc(OC(C)=O)c2c1CC(C)=C(C)C2,15.3
13,N#CC1(C#N)C(C(N)=O)C1c1ccccc1 (centres unmarked),13.7
14,COc1cc(NC(=S)N2CCCC(CO)C2)cc(OC)c1 (centres unmarked),22.3
15,CCOC(=O)[C@H]1[C@H]2COc3ccc(Br)cc3[C@@H]2N2C(=O)CN(Cc3ccccc3)C(=O)[C@@]12C,12.4
16,O=C(N/N=C/c1cccs1)c1ccc2nc[nH]c2c1,3.39
17,COc1ccc(-c2nc(CSCC(=O)NC3CC3)c(C)o2)cc1OC,26.7
18,COc1ccc2[nH]c(=O)c(C(c3nnnn3C3CCCC3)N3CCN(Cc4ccc5c(c4)OCO5)CC3)cc2c1 (centres unmarked),-2.19
19,O=C(O)CSc1nnc(-c2ccc(Cl)cc2Cl)n1-c1ccc(Cl)cc1,9.5
20,Cn1cc(/C=N/n2cnc3sc4c(c3c2=O)CCCC4)c2ccccc21,-0.123
21,Cc1ccc(C(=O)N[C@H](C(=O)NC2CCCCCCC2)C(C)C)cc1,10.8
22,Cc1ccc2c(CC(=O)Nc3cccc(S(=O)(=O)N4CCOCC4)c3)coc2c1,3.93
23,Cc1ccc(NC(=S)N/N=C/c2cccn2Cc2ccccc2F)cc1,-1.36
